Data: PubChem BioAssay AID488969 (Vanderbilt High Throughput Screening Facility, 2010)
Whole data set: some 110,000 compounds, median “z-score” near -0.1, cut for the highest 2% near 2. Some of the results follow. Active and inactive are the calls of the source.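 Rule for the calls: active = z-score in the third read window above 3 or below -3; inactive = the rest.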

Biological target: Metabotropic glutamate receptor 8 (Rattus norvegicus) (UniProt P70579)
Experiment: rat mGluR8 modulators via GIRK flux, primary screen, cell-based, thallium flux, HTS (AID 488969)
Conditions: HEK293 rat mGluR8, GIRK (G protein-gated inwardly rectifying potassium channel) thallium flux, FluoZin2; at 10 µM; stronger effect = higher value; submaximal glutamate (EC20) added with thallium

Sequence of UniProt P70579 (P70579 whole entry, looked up): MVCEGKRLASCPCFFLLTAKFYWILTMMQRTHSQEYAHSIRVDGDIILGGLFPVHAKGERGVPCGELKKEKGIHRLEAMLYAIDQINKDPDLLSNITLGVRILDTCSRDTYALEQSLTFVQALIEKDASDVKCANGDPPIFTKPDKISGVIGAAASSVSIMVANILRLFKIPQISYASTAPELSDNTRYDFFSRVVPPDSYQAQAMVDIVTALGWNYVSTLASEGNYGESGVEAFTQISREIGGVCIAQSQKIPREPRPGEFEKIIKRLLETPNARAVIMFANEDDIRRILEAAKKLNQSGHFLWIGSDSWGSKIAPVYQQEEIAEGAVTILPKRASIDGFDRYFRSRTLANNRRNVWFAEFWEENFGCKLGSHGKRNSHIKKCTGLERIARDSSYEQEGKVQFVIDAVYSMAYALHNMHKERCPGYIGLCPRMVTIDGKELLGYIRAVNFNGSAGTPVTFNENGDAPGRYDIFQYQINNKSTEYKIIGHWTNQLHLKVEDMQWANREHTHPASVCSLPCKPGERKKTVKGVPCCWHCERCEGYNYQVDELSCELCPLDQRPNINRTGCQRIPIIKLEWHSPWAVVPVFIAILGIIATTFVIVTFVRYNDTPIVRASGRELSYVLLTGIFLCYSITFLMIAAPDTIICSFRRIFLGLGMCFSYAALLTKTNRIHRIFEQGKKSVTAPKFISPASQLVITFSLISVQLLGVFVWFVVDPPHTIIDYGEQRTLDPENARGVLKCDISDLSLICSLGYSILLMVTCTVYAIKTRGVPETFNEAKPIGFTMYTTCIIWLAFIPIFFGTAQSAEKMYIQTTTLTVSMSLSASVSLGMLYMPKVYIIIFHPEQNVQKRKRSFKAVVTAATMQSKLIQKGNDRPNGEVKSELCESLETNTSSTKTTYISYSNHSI

Compound	z-score
CC(=NCc1cccnc1)C1=C(O)c2ccccc2C1=O	-0.77
Cc1ncsc1CCSc1n[nH]c(=O)n1-c1ccccc1	-0.0267
Cc1ccc(CNC(=O)Cn2c([N+](=O)[O-])cnc2C)cc1	0.0993
O=C(COc1ncnc2ccccc12)N1CCN(S(=O)(=O)c2ccccc2)CC1	0.475
CCCCNc1ccc(S(N)(=O)=O)cc1[N+](=O)[O-]	-0.177
O=C(Cc1cccs1)N1CCN(C(=O)C2CCCO2)CC1 (centres undefined)	0.349
Cn1c(COc2nnc(-c3ccc(Cl)cc3)c3ccccc23)nc2ccccc21	-0.0923
O=C(NCc1ccco1)c1ccc2c(c1)C(=O)N(Cc1ccccc1)C2=O	-0.715
O=C(Cn1nc(C(F)(F)F)c2c1CCC2)N1CCN(c2ccccc2)CC1	-0.164
COc1ccc(/C=N/NC(=O)c2nc(-c3ccccc3)cc(-c3ccccc3)n2)cc1	active: 8.06
Cc1ccc(OCCCC(=O)NCc2ccco2)cc1	-0.00785
CCc1ccc(NC2=NC(C(=O)NC3CCCCC3)CC(=O)N2)cc1 (centres undefined)	0.68
CCN1CCN(C(=S)c2ccc(OCC(=O)Nc3ccc(OC)cc3)cc2)CC1	-0.115
CCN1C(=O)/C(=C2/C(=O)N3c4c(cc(OC(C)=O)cc42)C(C)=CC3(C)C)SC1=S	-0.169
O=P(O)(CCc1ccccc1)CN1CCCCC1	0.373
Cc1ccc(N(C(=O)c2csnn2)C(C(=O)NC(C)(C)C)c2ccncc2)cc1 (centres undefined)	-0.134
CCOC(=O)Nc1sc(NS(=O)(=O)c2ccc(C)cc2)nc1C	-0.424
COCc1cc(C)c2c(N)c(C#N)sc2n1	0.336
CCn1c(CCNC(=O)c2cccs2)nnc1SCC(=O)Nc1cccc(Cl)c1	-0.277
Cc1cc2c(=O)n(CC(=O)N3CCN(c4ccccc4)CC3)cnc2s1	-0.539
COc1ccc(OC)c2sc(NC(=O)CCS(=O)(=O)c3ccccc3)nc12	-0.271
COc1ccc(NC(=O)C2CC(=O)OC2(C)C)cc1 (centres undefined)	-0.102
O=P(c1ccccc1)(c1ccccc1)N(c1ccccc1)c1ccccc1	-0.752
C/C(=N\Nc1nc(-c2ccccc2)cs1)c1cccs1	-0.355
COc1ccc(OC)c(NC(=O)CCN2CCC(C)CC2)c1	-0.2
O=C(CCS(=O)(=O)c1cccs1)N1CCCC1	0.157
N#Cc1c(NC(=O)CSc2ncc(-c3ccccc3)n2CC2CCCO2)sc2c1CCCC2 (centres undefined)	0.288

Compound	z-score
Cc1ccccc1C(=O)NNC(=S)NC(=O)COc1ccccc1	active: 4.25
O=C(c1ccccc1Nc1ccc(SC(F)F)cc1)N1CCCCC1	-0.0659
CC1CCN(S(=O)(=O)c2ccc(S(=O)(=O)NCc3ccccc3)cc2)CC1	0.689
Cc1ccc(S(=O)(=O)/N=C(\Nc2cccc(C)c2)Nc2nc(C)cc(C)n2)cc1	0.627
COc1ccc(CN(C(=O)c2ccc(-c3ccccc3)[nH]2)C(C(=O)NCC2CCCO2)c2ccc(C)o2)cc1 (centres undefined)	-0.244
O=C(O)CCCC(=O)N1CCN(c2nc(-c3ccccc3)c3ccccc3n2)CC1	-1.23
CN(C)C(=O)N1CCC(C(=O)NCC2CCCO2)CC1 (centres undefined)	0.123
Cc1cc(=O)oc2cc(NC(=O)CCCC(=O)O)ccc12	-0.358
CC1(C)NC(=O)N(CCOCCSc2ccccc2)C1=O	0.626
CC(C)(C)NC(=O)CN(C(=O)Cn1nnc(-c2ccccc2F)n1)c1cccc2c1CCCC2	-0.408
Cc1cc(C)nc(NS(=O)(=O)c2ccc(Br)s2)c1	0.0301
COCCN1C(=O)/C(=C/c2ccc(Oc3ccc([N+](=O)[O-])cn3)c(OC)c2)SC1=Nc1ccccc1	0.27
Cc1ccc(N2C(=O)c3ccccc3C2Nc2ccc(S(=O)(=O)N3CCCCC3)cc2)nc1 (centres undefined)	-0.176
COc1ccc(-n2nnnc2SCC(=O)NNC(=O)c2ccc([N+](=O)[O-])cc2)cc1	0.425
Cc1nc(CCNC(=O)c2cccs2)cs1	0.207
O=C(COC(=O)C12CC3CC(CC(C3)C1)C2)N1CCN(S(=O)(=O)c2ccccc2)CC1	-0.0502
COC(=O)C(O)(CC(=O)c1ccc(OC)cc1)C(F)(F)F (centres undefined)	-0.345
CCOc1ccc(Oc2nc(NCC(C)C)nc(N(C)C)n2)nn1	-0.0925
CC(=O)c1nn(-c2cccc(Br)c2)cc1C(=O)c1cccc2ccccc12	-0.0218
Cc1nccc(-c2ccc(-n3cnc4ccccc43)cc2)n1	-0.679
CS(=O)(=O)Nc1cccc(C2=NN(S(=O)(=O)c3ccccc3)C(c3cccs3)C2)c1 (centres undefined)	-0.213
CCCC(=O)Nc1nnc(COC)s1	0.217
Cc1ccccc1C(=O)c1c[nH]c(C(=O)NCC2CCCO2)c1 (centres undefined)	-0.213
O=S(=O)(c1ccccc1Cl)N1CCCC1c1nc(-c2cccc(Cl)c2)no1 (centres undefined)	0.278
O=C1CCCN1c1ccc(S(=O)(=O)NCc2ccco2)cc1	0.189
COc1ccc(CCNC(=O)C/C(C)=N/NC(=O)C23CC4CC(CC(C4)C2)C3)cc1OC	-0.347
CCC(C(=O)NC(C)(C)C)N(C(=O)Cn1nnc(-c2ccccc2F)n1)c1cccc2c1CCCC2 (centres undefined)	0.779
